# Over roughly 33,000 sequences, “E-score (-0.5 to 0.5)” has its median near -0.054; the highest 2% begin near 0.39. Some of the results follow.
# Target: Ylr278c (UniProt Q05854)
# Experiment: PBM E-score (8-mer binding enrichment) (E-score (-0.5 to 0.5)); higher = stronger / more preferred TF binding; most listed sequences are background and not binding sites
# Conditions: protein concentration: 200 nM; construct: GST-DNA-binding domain
# Procedure: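 Universal 'all 10-mer' protein binding microarrays (Agilent AMADID 015681) probed with GST-tagged S. cerevisiae TFs (full-length or DBD) made by in vitro transcription/translation (PURExpress), about 100-200 nM. Bound TF was detected with fluorescent anti-GST. Each ungapped 8-mer (which stands for itself and its reverse complement) is scored by the PBM enrichment score (E-score), a modified Wilcoxon-Mann-Whitney statistic from -0.5 to +0.5, computed with the Universal PBM Analysis Suite. Scale: above 0.35 generally sequence-specific binding.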
row,Sequence,PBM E-score
1,GACTATCC,0.068
2,ATTAGTAG,-0.119
3,CTCCCATC,0.0174
4,GCCACGGA,0.22
5,AACAACTT,-0.0233
6,CAGAGACA,-0.195
7,ACACCTCT,-0.119
8,ACAACTTC,0.0889
9,CGGCCTCA,0.175
10,GAATTAGA,-0.00804
11,ACACTTTG,-0.077
12,GCTGCAAA,-0.172
13,TTATGAAA,-0.0429
14,AGCTCGTC,-0.0504
15,AATCGAAG,-0.0454
16,CACTCCGG,0.46
17,CAATCCTG,-0.108
18,ATGGCTGA,-0.344
19,CGCCGGAC,0.447
20,ATTTGCGG,0.35
21,CCGATGCC,0.357
22,TAGCGAGA,-0.0935
23,AACCCTCT,-0.241
24,AGCCTAGC,0.0291
25,AGACCCGA,0.182

row,Sequence,PBM E-score
1,CCGCGTCA,-0.0131
2,TGCTACCA,-0.274
3,CTACACTC,-0.143
4,ACCTCTTG,0.0564
5,TAGCACGA,-0.17
6,AACCCGAA,0.159
7,AGGCTCAG,-0.354
8,CCTAGGTA,-0.14
9,GGCGGAAA,0.328
10,ATACCCCC,0.0218
11,CGGGAAAC,0.297
12,ACTCTGAG,-0.247
13,CGGTCGTC,0.091
14,ACCATGGT,-0.444
15,CCCCTTTA,-0.277
16,CCCCCACC,-0.194
17,ATACTCTC,0.0286
18,CACGGGAA,0.0802
19,GAGAACCA,0.0202
20,CCCAGACG,-0.203
21,AGGGCACT,-0.272
22,ATCTCTTG,-0.163
23,CTCCCATA,-0.152
24,GCTACGCC,-0.0899
25,GAGGGAAA,-0.26

row,Sequence,PBM E-score
1,ATTGCAGA,-0.0988
2,CCGTAACC,0.221
3,CACCCTGG,-0.197
4,ACAGCCAC,-0.0864
5,CCTCATGC,-0.234
6,AAATTCAT,-0.0822
7,ATCGTCCG,0.327
8,ACTTCATG,-0.172
9,CACCCGTA,0.0195
10,AGAGGAGC,-0.277
11,CCGCGAAC,0.257
12,AACAGTTA,0.095
13,ACGCGCCG,0.214
14,AATCCATG,-0.0812
15,GACCAAAC,-0.0647
16,TAGTCCGA,0.415
17,GCTCAGCA,-0.181
18,AAGTATTA,-0.173
19,ACACCCGC,0.108
20,ACCCCTAC,-0.211
21,AATAGGTG,-0.164
22,CTTGGACA,-0.134
23,AGCCCTAT,-0.156
24,CTTACACC,-0.0303
25,AAAAACAT,-0.153

row,Sequence,PBM E-score
1,GAAACTTA,0.111
2,CGTAGAAA,-0.142
3,AGTTTTTA,-0.238
4,AGGAAGCA,-0.14
5,AGATTCAT,-0.21
6,CAGTCGCC,-0.0183
7,TGAACCCA,-0.0431
8,CCTGAGGA,-0.069
9,CAAGTGGA,-0.151
10,AAACTTTA,0.0301
11,AGCCGGAT,0.404
12,CACAACAA,-0.0681
13,AATCTGGT,0.0573
14,CGTACTAC,0.0532
15,ATAGGCTG,-0.272
16,AGTCAGGG,-0.314
17,AGCCTTGC,-0.137
18,ACTATGTC,-0.0396
19,GCTTCGAC,-0.161
20,ACGTAGGG,-0.204
21,CGAGCAGC,-0.0223
22,GAGGATCA,-0.0641
23,GTGGTTGA,-0.195
24,AGATGGAA,-0.0221
25,AATTTAGT,0.087

row,Sequence,PBM E-score
1,TGCGGCCA,0.00758
2,CCAAATGG,-0.0754
3,AAGGCGTA,-0.257
4,CGGTTCGC,0.131
5,TCGGTGAA,0.207
6,AAGCTTAC,-0.225
7,TAACATGA,-0.167
8,AAAACCTC,0.11
9,CGCCCTGC,0.0947
10,GAGGGAGA,-0.145
11,ATTAAGCA,-0.0912
12,CAGTGCTC,-0.197
13,CGAGGTTA,0.0177
14,CCTTTTTA,-0.0536
15,TGAGGCCA,-0.19
16,ACTGTGCA,-0.305
17,AGCCTACG,-0.0888
18,CATTGGAC,-0.0342
19,CGTAAATC,0.164
20,AAGCGTAC,-0.246
21,ATAGGATG,-0.0679
22,AATCTATA,-0.082
23,CGGGGTGA,0.247
24,AGCGAGGC,-0.211
25,CACGTACA,-0.177

row,Sequence,PBM E-score
1,AGTCCGCC,0.424
2,ATAGTAAG,-0.11
3,GCGAGTTA,-0.055
4,CAGCTTCG,-0.133
5,GACTTCGA,-0.111
6,CGCAACCG,0.172
7,GATTTAGA,0.0778
8,CGTTTTAG,-0.195
9,GGACCACA,0.0696
10,GCTCAGGA,-0.173
11,AAAGTGTT,0.0904
12,ACGAAGTA,-0.0982
13,ACTCGGGG,0.237
14,GGACTGTA,-0.0447
15,CGGCAAAC,0.312
16,ACATCGCT,-0.208
17,AGGTTCCA,-0.0418
18,AATGCGGT,0.116
19,CCTCCAGA,0.0579
20,AGGCAGAT,-0.0902
21,GGAGTCCA,0.164
22,TAATTAAA,-0.156
23,ATCATTGG,-0.246
24,CATCCCTC,-0.0278
25,TAAATGCA,0.012

row,Sequence,PBM E-score
1,AAGAGAAG,-0.156
2,AGCGTTGC,0.0275
3,TAATCGCA,-0.119
4,AGTCAGAG,-0.0321
5,CAACGGCG,0.207
6,AGTGTTGC,-0.0795
7,ACTCCGCC,0.475
8,ACTCACCC,0.123
9,TAGAACGA,-0.292
10,AATATGTA,-0.027
11,AGGTTCGC,0.0317
12,ACGACAGG,-0.0204
13,TGAACGAA,-0.229
14,CAAGTGAA,-0.204
15,ATACACCC,0.093
16,CTAGAGTC,-0.358
17,AGAGACTC,-0.105
18,CGAGTGCG,0.225
19,AAGGCATC,-0.193
20,CTAAAGCA,0.047
21,ATGTATCG,0.00707
22,ATCAGGTG,-0.00107
23,GTGTAAAC,-0.0414
24,ACCGGGGA,0.302
25,ACACTGCA,-0.16

row,Sequence,PBM E-score
1,ACGTTTGG,-0.233
2,AGCCAACC,0.124
3,AAGACGAC,-0.0844
4,TGAGATCA,-0.137
5,CTTCTTCC,0.0364
6,ACCAGAAC,-0.062
7,AGAAAGGA,-0.159
8,ATTTAACA,-0.0471
9,AATCAAAT,0.0839
10,CGCGTCAG,-0.162
11,GAGAGGAA,-0.128
12,ATACTCAT,-0.2
13,CCAATTCC,0.227
14,ATTATCGC,0.06
15,CGGAAAAA,0.446
16,AACTGTGG,-0.0559
17,AGGCAGGC,-0.163
18,ATGGACAA,-0.201
19,AGGGTATG,-0.328
20,ATTTCTAC,0.0337
21,ACTACTTG,-0.25
22,GCACGTGA,-0.255
23,AACTTAAC,0.027
24,CAATCCCG,0.368
25,GAAGCACA,0.00269

row,Sequence,PBM E-score
1,ATACCGTG,0.0569
2,CCCCGGGG,0.412
3,ACCTGGGC,-0.243
4,GGTTGAAC,-0.0541
5,CATTAACG,0.109
6,AAGAATCA,0.031
7,GCGTGTCC,0.129
8,ACACATGT,-0.0941
9,CATTCAGA,-0.228
10,ATCCGCTA,0.196
11,ATTAAGAC,-0.217
12,CCTGATTC,0.0241
13,ATATCACG,-0.0275
14,CGCATAAA,-0.00552
15,GCACTCAA,-0.111
16,ACCCCGGA,0.445
17,TGTACACA,-0.216
18,AAAAGGCA,-0.112
19,AAAGTGCT,-0.204
